In patent US20250289788A1, “HALOALKYL SULFONANILIDE COMPOUND AND HERBICIDE CONTAINING THE SAME” (SDS BIOTECH K.K., priority 2022, published 2025):
Some results were stated once for a whole list of compounds, not compound by compound. For at least one compound, name, drawing or mass did not settle the structure.

Legend:
Assay in all cases: Test Example 1: herbicidal effect test using paddy field flooding treatment
Assay type in all cases: in vivo
Settings in all cases: water surface application, 21 days after treatment
[1] = tested on: Schoenoplectiella juncoides (SJ)
Experimental: <Test Example 1> Herbicidal Effect Test Using Paddy Field Flooding Treatment
After each 40-cm^2 plastic cup was loaded with puddled paddy field soil, seeds of each of the following species were sown and grown in a greenhouse: Echinochloa crus-galli var. oryzicola (EC), Schoenoplectiella juncoides (SJ), Monochoria vaginalis (MV), or Ammannia multiflora (AM). After plants were grown for 14 days, water was flooded to a depth of 3 cm, and a 10% wettable powder, which had been adjusted according to Formulation Example 1, was diluted with distilled water and applied dropwise to the water surface. The amount applied was 1000, 500, 250, 125, 63, 31, or 16 g of active ingredient per hectare. The test was conducted in two series. Herbicidal efficacy (degree (%) of suppression of growth of terrestrial part: 100 (complete death) to 0 (no action)) was investigated at 21 days after the treatment.

[2] = tested on: Monochoria vaginalis (MV)
Ammannia multiflora (AM) = tested on: Ammannia multiflora (AM)

Measured: herbicidal efficacy (degree (%) of suppression of growth of terrestrial part)

O=C1c2sccc2CCN1Cc1ccccc1NS(=O)(=O)C(F)(F)F [Compound 6-5]
≥ 80%: [1]; dose 250 g a.i./ha | [2]; dose 63 g a.i./ha | Ammannia multiflora (AM); dose 63 g a.i./ha

CCO/C=C/C(=O)N(c1ccccc1CN1CCc2c(F)ccc(F)c2C1=O)S(=O)(=O)C(F)(F)F [Compound 3-119]
≥ 80%: [1]; dose 500 g a.i./ha | [2]; dose 250 g a.i./ha | Ammannia multiflora (AM); dose 16 g a.i./ha

Cc1cc(C)c2c(c1)CCN(Cc1ccccc1NS(=O)(=O)C(F)(F)F)C2=O [Compound 3-62]
≥ 80%: [1]; dose 250 g a.i./ha | [2]; dose 125 g a.i./ha | Ammannia multiflora (AM); dose 63 g a.i./ha

C#CCOc1ccc2c(c1)C(=O)N(Cc1ccccc1NS(=O)(=O)C(F)(F)F)CC2 [Compound 3-33]
≥ 80%: [1]; dose 250 g a.i./ha | [2]; dose 250 g a.i./ha | Ammannia multiflora (AM); dose 31 g a.i./ha

CC(C)(C)COC(=O)N(c1ccccc1CN1CCc2c(F)ccc(F)c2C1=O)S(=O)(=O)C(F)(F)F [Compound 3-170]
≥ 80%: [1]; dose 250 g a.i./ha | [2]; dose 250 g a.i./ha | Ammannia multiflora (AM); dose 16 g a.i./ha

O=C1c2cccc([N+](=O)[O-])c2CCN1Cc1ccccc1NS(=O)(=O)C(F)(F)F [Compound 3-45]
≥ 80%: [1]; dose 250 g a.i./ha | [2]; dose 250 g a.i./ha | Ammannia multiflora (AM); dose 125 g a.i./ha

CCOC(=O)N(c1ccccc1CN1CCc2c(F)ccc(S(C)(=O)=O)c2C1=O)S(=O)(=O)C(F)(F)F [Compound 3-159]
≥ 80%: [1]; dose 500 g a.i./ha | [2]; dose 500 g a.i./ha | Ammannia multiflora (AM); dose 500 g a.i./ha

O=C1c2c(F)cccc2N1Cc1ccccc1NS(=O)(=O)C(F)(F)F [Compound 1-2]
≥ 80%: [1]; dose 63 g a.i./ha | [2]; dose 500 g a.i./ha | Ammannia multiflora (AM); dose 63 g a.i./ha

O=C1c2cc3ccccc3cc2CCN1Cc1ccccc1NS(=O)(=O)C(F)(F)F [Compound 3-89]
≥ 80%: [1]; dose 500 g a.i./ha | [2]; dose 500 g a.i./ha | Ammannia multiflora (AM); dose 63 g a.i./ha

CCC(C)SC(=O)N(c1ccccc1CN1CCc2c(F)ccc(F)c2C1=O)S(=O)(=O)C(F)(F)F (stereo not drawn) [Compound 3-242]
≥ 80%: [1]; dose 250 g a.i./ha | [2]; dose 63 g a.i./ha | Ammannia multiflora (AM); dose 16 g a.i./ha

CCOC(=O)N(c1ccccc1CN1CCc2c(F)ccc(SC)c2C1=O)S(=O)(=O)C(F)(F)F [Compound 3-157]
≥ 80%: [1]; dose 125 g a.i./ha | [2]; dose 125 g a.i./ha | Ammannia multiflora (AM); dose 250 g a.i./ha

O=C1c2c(Cl)ccc(Cl)c2CCN1Cc1ccccc1NS(=O)(=O)C(F)(F)F [Compound 3-70]
≥ 80%: [1]; dose 125 g a.i./ha | [2]; dose 125 g a.i./ha | Ammannia multiflora (AM); dose 16 g a.i./ha

CC(C)OC(=O)OCN(c1ccccc1CN1CCc2c(F)ccc(F)c2C1=O)S(=O)(=O)C(F)(F)F [Compound 3-96]
≥ 80%: [1]; dose 500 g a.i./ha | [2]; dose 500 g a.i./ha | Ammannia multiflora (AM); dose 16 g a.i./ha

COCC(COC)OC(=O)N(c1ccccc1CN1CCc2c(F)ccc(F)c2C1=O)S(=O)(=O)C(F)(F)F [Compound 3-230]
≥ 80%: [1]; dose 500 g a.i./ha | [2]; dose 63 g a.i./ha | Ammannia multiflora (AM); dose 31 g a.i./ha

Cc1cccc2c1C(=O)N(Cc1ccccc1NS(=O)(=O)C(F)(F)F)C2 [Compound 2-5]
≥ 80%: [1]; dose 250 g a.i./ha | [2]; dose 500 g a.i./ha | Ammannia multiflora (AM); dose 250 g a.i./ha

Cc1cccc(CN2CCc3c(F)ccc(F)c3C2=O)c1NS(=O)(=O)C(F)(F)F [Compound 4-14]
≥ 80%: [1]; dose 250 g a.i./ha | [2]; dose 125 g a.i./ha | Ammannia multiflora (AM); dose 63 g a.i./ha

CCOC(=O)N(c1ccccc1CN1CCc2c(SC)ccc(SC)c2C1=O)S(=O)(=O)C(F)(F)F [Compound 3-158]
≥ 80%: [1]; dose 500 g a.i./ha | [2]; dose 500 g a.i./ha | Ammannia multiflora (AM); dose 250 g a.i./ha

O=C1c2c(Cl)cccc2CCN1Cc1ccccc1N(C(=O)C1CC1)S(=O)(=O)C(F)(F)F [Compound 3-105]
≥ 80%: [1]; dose 500 g a.i./ha | [2]; dose 125 g a.i./ha | Ammannia multiflora (AM); dose 16 g a.i./ha

CCOC(=O)N(c1ccccc1CN1CCc2cc(C3CC3)cc(F)c2C1=O)S(=O)(=O)C(F)(F)F [Compound 3-147]
≥ 80%: [1]; dose 125 g a.i./ha | [2]; dose 500 g a.i./ha | Ammannia multiflora (AM); dose 63 g a.i./ha

Cc1cccc2c1CCN(Cc1ccccc1NS(=O)(=O)C(F)(F)F)C2=O [Compound 3-44]
≥ 80%: [1]; dose 125 g a.i./ha | [2]; dose 63 g a.i./ha | Ammannia multiflora (AM); dose 31 g a.i./ha

O=C1c2c(F)cc(C3CC3)cc2CCN1Cc1ccccc1NS(=O)(=O)C(F)(F)F [Compound 3-59]
≥ 80%: [1]; dose 125 g a.i./ha | [2]; dose 63 g a.i./ha | Ammannia multiflora (AM); dose 31 g a.i./ha

CCOC(=O)N(c1ccccc1CN1Cc2ccccc2CC1=O)S(=O)(=O)C(F)(F)F [Compound 9-5, N-[2-(N-ethoxycarbonyl-N-trifluoromethanesulfonyl)aminobenzyl]-1,4-dihydroisoquinolin-3(2H)-one]
≥ 80%: [1]; dose 500 g a.i./ha | [2]; dose 500 g a.i./ha | Ammannia multiflora (AM); dose 250 g a.i./ha

CCOC(=O)N(c1ccccc1CN1CCc2c(F)ccc(N3CCOCC3)c2C1=O)S(=O)(=O)C(F)(F)F [Compound 3-156]
≥ 80%: [1]; dose 500 g a.i./ha | [2]; dose 63 g a.i./ha | Ammannia multiflora (AM); dose 31 g a.i./ha

O=C1c2cc([N+](=O)[O-])ccc2CCN1Cc1ccccc1NS(=O)(=O)C(F)(F)F [Compound 3-28]
≥ 80%: [1]; dose 63 g a.i./ha | [2]; dose 125 g a.i./ha | Ammannia multiflora (AM); dose 125 g a.i./ha

CCOC(=O)N(c1ccccc1CN1CCc2c(OC)ccc(F)c2C1=O)S(=O)(=O)C(F)(F)F [Compound 3-153, N-[2-(N-ethoxycarbonyl-N-trifluoromethanesulfonyl)aminobenzyl]-8-fluoro-5-methoxy-3,4-dihydroisoquinolin-1(2H)-one]
≥ 80%: [1]; dose 500 g a.i./ha | [2]; dose 250 g a.i./ha | Ammannia multiflora (AM); dose 63 g a.i./ha

O=C1c2cccc(F)c2N1Cc1ccccc1NS(=O)(=O)C(F)(F)F [Compound 1-5]
≥ 80%: [1]; dose 125 g a.i./ha | [2]; dose 500 g a.i./ha | Ammannia multiflora (AM); dose 31 g a.i./ha

O=C1c2cccc(Cl)c2CCN1Cc1ccccc1NS(=O)(=O)C(F)(F)F [Compound 3-43]
≥ 80%: [1]; dose 500 g a.i./ha | [2]; dose 125 g a.i./ha | Ammannia multiflora (AM); dose 63 g a.i./ha

O=C1c2c(Cl)cc(Cl)cc2CCN1Cc1ccccc1NS(=O)(=O)C(F)(F)F [Compound 3-61]
≥ 80%: [1]; dose 500 g a.i./ha | [2]; dose 250 g a.i./ha | Ammannia multiflora (AM); dose 31 g a.i./ha

C#CCOc1cccc2c1C(=O)N(Cc1ccccc1NS(=O)(=O)C(F)(F)F)CC2 [Compound 3-16]
≥ 80%: [1]; dose 250 g a.i./ha | [2]; dose 500 g a.i./ha | Ammannia multiflora (AM); dose 250 g a.i./ha

O=C1c2cc(Br)ccc2CCN1Cc1ccccc1NS(=O)(=O)C(F)(F)F [Compound 3-21]
≥ 80%: [1]; dose 250 g a.i./ha | [2]; dose 125 g a.i./ha | Ammannia multiflora (AM); dose 63 g a.i./ha

CCOC(=O)N(c1ccccc1CN1CC(C)c2c(F)ccc(F)c2C1=O)S(=O)(=O)C(F)(F)F (stereo not drawn) [Compound 7-15, N-[2-(N-ethoxycarbonyl-N-trifluoromethylsulfonyl)aminobenzyl]-5,8-difluoro-4-methyl-3,4-dihydroisoquinolin-1(2H)-one]
≥ 80%: [1]; dose 125 g a.i./ha | [2]; dose 125 g a.i./ha | Ammannia multiflora (AM); dose 16 g a.i./ha
